Results published in the BET-seq Pho4 binding data (Le et al. 2018).
The other results are listed elsewhere or left out. Values were computed here from the reads of four pooled replicates and scatter widely.

Biological target: T1, Pho4 (S. cerevisiae) (UniProt P07270)
T1 sequence: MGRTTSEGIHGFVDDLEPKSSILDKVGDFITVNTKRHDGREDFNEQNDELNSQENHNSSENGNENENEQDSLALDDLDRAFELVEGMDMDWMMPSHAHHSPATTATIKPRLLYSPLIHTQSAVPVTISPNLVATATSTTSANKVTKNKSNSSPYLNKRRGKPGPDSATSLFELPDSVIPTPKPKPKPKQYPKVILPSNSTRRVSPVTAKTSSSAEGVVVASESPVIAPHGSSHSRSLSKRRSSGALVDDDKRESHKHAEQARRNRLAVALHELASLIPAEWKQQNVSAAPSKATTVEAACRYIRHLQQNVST
Assay: relative binding free energy (BET-seq); higher = weaker binding
Settings: reference: library average

How did the “relative binding free energy” value turn out when TAAAGCACGTGGGGGA was run?
Its value is -0.24 kcal/mol.

With TGTTTCACGTGTGACG as the sequence, how does the “relative binding free energy” value read?
Its value is 0.35 kcal/mol.

Which “relative binding free energy” value does the source give for TTATCCACGTGTAGTG here?
The value was 0.08 kcal/mol.

With TTTAACACGTGGTGCT as the sequence, how does the “relative binding free energy” value read?
Its value is -0.12 kcal/mol.

With TAGCTCACGTGTGGTT as the sequence, how does the “relative binding free energy” value read?
Its value is 0.33 kcal/mol.

Which “relative binding free energy” value does the source give for TGTATCACGTGGAATA here?
The value was 0.19 kcal/mol.

ATATCCACGTGTGTGT was tested. Which “relative binding free energy” value did it give?
Its value is -0.19 kcal/mol.

How did the “relative binding free energy” value turn out when GAAGTCACGTGGTTAG was run?
The value was 0.06 kcal/mol.

For AGTCTCACGTGATGGG, which “relative binding free energy” value is on record?
Its value is 0.27 kcal/mol.

How did the “relative binding free energy” value turn out when TCATTCACGTGGGTAT was run?
Its value is 0.2 kcal/mol.

Which “relative binding free energy” value does the source give for GTTGTCACGTGTGGTC here?
Its value is 0.27 kcal/mol.

GTTGTCACGTGGATAG was tested. Which “relative binding free energy” value did it give?
The value was 0.31 kcal/mol.

TTTGTCACGTGGCTAG was tested. Which “relative binding free energy” value did it give?
Its value is -0.01 kcal/mol.

TAAGCCACGTGATGGG was tested. Which “relative binding free energy” value did it give?
The value was 0.04 kcal/mol.

Which “relative binding free energy” value does the source give for AATTGCACGTGAGGTC here?
Its value is 0.22 kcal/mol.

With CTGTGCACGTGTTTGC as the sequence, how does the “relative binding free energy” value read?
The value was -0.04 kcal/mol.

TATGACACGTGTGGAT was tested. Which “relative binding free energy” value did it give?
The value was 0.21 kcal/mol.

With GGAGACACGTGGGTAG as the sequence, how does the “relative binding free energy” value read?
Its value is -0.07 kcal/mol.

With TATGTCACGTGTTGGG as the sequence, how does the “relative binding free energy” value read?
The value was 0.17 kcal/mol.

How did the “relative binding free energy” value turn out when CATAGCACGTGGGTTT was run?
Its value is -0.13 kcal/mol.

ATAATCACGTGTTTAT was tested. Which “relative binding free energy” value did it give?
The value was 0.12 kcal/mol.

With TGTTTCACGTGGAGGG as the sequence, how does the “relative binding free energy” value read?
The value was 0.3 kcal/mol.

How did the “relative binding free energy” value turn out when TGGTTCACGTGCATGC was run?
The value was 0.27 kcal/mol.

Which “relative binding free energy” value does the source give for TTAGACACGTGAAGTT here?
The value was 0.14 kcal/mol.

With TCGTTCACGTGGGAAG as the sequence, how does the “relative binding free energy” value read?
Its value is 0.13 kcal/mol.

GTCTACACGTGGTCGG was tested. Which “relative binding free energy” value did it give?
The value was 0.11 kcal/mol.

With GTGATCACGTGGGTAA as the sequence, how does the “relative binding free energy” value read?
The value was -0.04 kcal/mol.

How did the “relative binding free energy” value turn out when AGGGTCACGTGAGTTC was run?
Its value is 0.44 kcal/mol.

Which “relative binding free energy” value does the source give for GTTTCCACGTGCGGGT here?
Its value is 0.07 kcal/mol.

With TAGAACACGTGGTGAT as the sequence, how does the “relative binding free energy” value read?
The value was 0.02 kcal/mol.

How did the “relative binding free energy” value turn out when GCCTTCACGTGGAGGT was run?
The value was 0.33 kcal/mol.

With CGGGTCACGTGGTAGA as the sequence, how does the “relative binding free energy” value read?
Its value is 0.23 kcal/mol.

With TTTTTCACGTGATGAT as the sequence, how does the “relative binding free energy” value read?
Its value is 0.36 kcal/mol.

How did the “relative binding free energy” value turn out when GGAAACACGTGGTTTA was run?
Its value is 0.06 kcal/mol.

For GGGGCCACGTGTGGTA, which “relative binding free energy” value is on record?
The value was -0.05 kcal/mol.

For TTTAGCACGTGCGTGC, which “relative binding free energy” value is on record?
Its value is -0.12 kcal/mol.

TTTAACACGTGGTGCG was tested. Which “relative binding free energy” value did it give?
The value was -0.12 kcal/mol.

With TCATGCACGTGTTCGT as the sequence, how does the “relative binding free energy” value read?
Its value is -0.06 kcal/mol.

How did the “relative binding free energy” value turn out when ACTGGCACGTGTTGGC was run?
Its value is -0.06 kcal/mol.

With TCGCTCACGTGGTTTG as the sequence, how does the “relative binding free energy” value read?
The value was 0.19 kcal/mol.

How did the “relative binding free energy” value turn out when ATTTTCACGTGCGTGA was run?
The value was 0.29 kcal/mol.

GCGTGCACGTGGAAGG was tested. Which “relative binding free energy” value did it give?
The value was 0 kcal/mol.

For CGGGGCACGTGGCTTG, which “relative binding free energy” value is on record?
Its value is -0.27 kcal/mol.

For TTTTTCACGTGTGCTC, which “relative binding free energy” value is on record?
The value was 0.37 kcal/mol.

ATGTTCACGTGGGCTA was tested. Which “relative binding free energy” value did it give?
The value was 0.11 kcal/mol.

GGGCTCACGTGGCGGG was tested. Which “relative binding free energy” value did it give?
The value was 0.29 kcal/mol.

GATGACACGTGGTGTC was tested. Which “relative binding free energy” value did it give?
Its value is 0.01 kcal/mol.

Which “relative binding free energy” value does the source give for TGAGGCACGTGAGGTC here?
The value was 0.11 kcal/mol.

TATTACACGTGGAATG was tested. Which “relative binding free energy” value did it give?
The value was 0.09 kcal/mol.

With AGAGTCACGTGTTAGT as the sequence, how does the “relative binding free energy” value read?
Its value is 0.14 kcal/mol.

TGGGGCACGTGTTTTT was tested. Which “relative binding free energy” value did it give?
Its value is -0.01 kcal/mol.

GCTAACACGTGGGTGG was tested. Which “relative binding free energy” value did it give?
Its value is -0.08 kcal/mol.

Which “relative binding free energy” value does the source give for GTAGGCACGTGTAACG here?
The value was -0.02 kcal/mol.

How did the “relative binding free energy” value turn out when ACTGGCACGTGATATG was run?
The value was -0.08 kcal/mol.

For TTGGGCACGTGGGTTT, which “relative binding free energy” value is on record?
Its value is -0.07 kcal/mol.

TTAATCACGTGGGCGA was tested. Which “relative binding free energy” value did it give?
Its value is -0.03 kcal/mol.

Which “relative binding free energy” value does the source give for TAATACACGTGGGGTT here?
Its value is -0.12 kcal/mol.

AGAAGCACGTGTTGTG was tested. Which “relative binding free energy” value did it give?
The value was -0.07 kcal/mol.

For TAGCGCACGTGTGATG, which “relative binding free energy” value is on record?
Its value is -0.07 kcal/mol.

For GGTTACACGTGTTCGT, which “relative binding free energy” value is on record?
The value was 0.17 kcal/mol.

With CGGTTCACGTGGATGG as the sequence, how does the “relative binding free energy” value read?
The value was 0.44 kcal/mol.

How did the “relative binding free energy” value turn out when TGAGACACGTGAGGCG was run?
Its value is 0.26 kcal/mol.

AGAGTCACGTGCGGCG was tested. Which “relative binding free energy” value did it give?
The value was 0.09 kcal/mol.
